Measured values taken from the supplement of paper PMC4967469.
Lines with a small IC50 respond at low doses; fits outside the tested doses are given as limits. AUC sums up the same curve from the lowest dose to the 256-fold higher top dose; the more sensitive the line, the further below 1. For part of these data: Where the top dose is marked as inferred, it is not printed in the source and was worked back from the curve model. For part of these data: Drugs with an entry number were screened twice under separate entries, and the two screens often disagree.

Columns and labels:
Assay in all cases: Viability of human cancer cell lines after 72 h of drug (GDSC screen)
RDEA119 = compound: COc1cc(F)c(F)c(Nc2ccc(I)cc2F)c1NS(=O)(=O)C1(C[C@H](O)CO)CC1 [RDEA119]; conditions: top dose 5 µM, top dose inferred
Method: (§1)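 Human cancer cell lines in 384-well plates, medium with 10% serum, drug for 72 h over a 256-fold dose range (nine 2-fold or five 4-fold steps up to the top dose). Adherent lines were fixed and stained with the nucleic acid dye Syto60, suspension lines read with resazurin; signal relative to control wells, capped at 0 and 100%. One two-parameter sigmoid per drug and line, fitted in a mixed model over all curves with the slope shared within a line.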

OSU-03012 = compound: NCC(=O)Nc1ccc(-n2nc(C(F)(F)F)cc2-c2ccc3c(ccc4ccccc43)c2)cc1 [OSU-03012]; conditions: top dose 16 µM; top dose inferred
Method: as §1

5-Fluorouracil = compound: O=c1[nH]cc(F)c(=O)[nH]1 [5-Fluorouracil]; conditions: top dose 32 µM; top dose inferred
Method: as §1

CUDC-101 = compound: C#Cc1cccc(Nc2ncnc3cc(OC)c(OCCCCCCC(=O)NO)cc23)c1 [CUDC-101]; conditions: top dose 5.12 µM; top dose inferred
Method: as §1

AC220 = compound: CC(C)(C)c1cc(NC(=O)Nc2ccc(-c3cn4c(n3)sc3cc(OCCN5CCOCC5)ccc34)cc2)no1 [AC220]; conditions: top dose 1.024 µM; top dose inferred
Method: as §1

QS11 = compound: OC[C@H](Cc1ccccc1)Nc1nc(Oc2ccc3c(c2)CCC3)nc2c1ncn2Cc1ccc(-c2ccccc2)cc1 [QS11]; conditions: top dose 10.24 µM
Method: as §1

JNK-9L = compound: Fc1cc(-c2ccnc(Nc3ccc(-n4cnc(N5CCOCC5)n4)cc3)n2)cc(N2CCOCC2)c1 [JNK-9L]; conditions: top dose 5.12 µM; top dose inferred
Method: as §1

Cell Line	AUC (RDEA119; screen: GDSC drug entry 1014)	IC50 (RDEA119; screen: GDSC drug entry 1014)	AUC (RDEA119; screen: GDSC drug entry 1526)	IC50 (RDEA119; screen: GDSC drug entry 1526)	AUC (OSU-03012)	IC50 (OSU-03012)	AUC (5-Fluorouracil)	IC50 (5-Fluorouracil)	AUC (CUDC-101)	IC50 (CUDC-101)	AUC (AC220)	IC50 (AC220)	AUC (QS11)	IC50 (QS11)	AUC (JNK-9L)	IC50 (JNK-9L)
LU-139 (small cell lung carcinoma, suspension)	0.843	> 5 µM	0.963	> 5 µM	0.837	15.4 µM	0.896	> 32 µM	0.567	0.514 µM	0.946	> 1.02 µM	0.934	> 10.2 µM	0.755	2.2 µM
KMH-2 (thyroid, adherent)	0.187	0.0415 µM	0.413	0.186 µM	0.719	3.85 µM	0.981	> 32 µM	0.932	> 5.12 µM	0.989	> 1.02 µM	0.753	3.09 µM	0.404	0.18 µM
ST486 (Burkitt lymphoma, suspension)	0.91	> 5 µM	0.989	> 5 µM	0.769	5.39 µM	0.591	3.45 µM	0.14	0.029 µM	0.955	> 1.02 µM	0.94	> 10.2 µM	0.412	–
ALL-PO (lymphoblastic leukaemia, suspension)	0.773	2.06 µM	0.978	> 5 µM	0.692	3.59 µM	0.381	0.922 µM	0.117	< 0.02 µM	0.363	0.0261 µM	0.918	> 10.2 µM	0.626	0.727 µM
NUGC-3 (stomach, adherent)	0.803	2.84 µM	0.793	2.6 µM	0.732	5.01 µM	0.916	> 32 µM	0.573	0.519 µM	0.983	> 1.02 µM	0.893	> 10.2 µM	0.581	0.547 µM
NCI-H810 (large cell lung carcinoma, adherent)	0.988	> 5 µM	0.984	> 5 µM	0.434	0.666 µM	0.536	2.5 µM	0.213	0.0483 µM	0.972	> 1.02 µM	0.762	3.52 µM	0.418	0.193 µM
YAPC (pancreas, adherent)	0.877	> 5 µM	0.926	> 5 µM	0.95	> 16 µM	0.927	> 32 µM	0.84	4.85 µM	0.984	> 1.02 µM	0.983	> 10.2 µM	0.685	1.21 µM
HCC1569 (breast, adherent)	0.917	> 5 µM	0.88	> 5 µM	0.744	6.46 µM	0.94	> 32 µM	0.63	0.827 µM	0.879	> 1.02 µM	0.892	> 10.2 µM	0.539	0.424 µM
RXF393 (kidney, adherent)	0.673	1.16 µM	0.702	–	0.771	8.61 µM	0.93	> 32 µM	0.437	0.202 µM	0.933	> 1.02 µM	0.976	> 10.2 µM	0.311	0.076 µM
NCI-H2029 (small cell lung carcinoma, adherent)	–	–	0.992	> 5 µM	0.916	> 16 µM	0.924	> 32 µM	0.694	1.05 µM	0.99	> 1.02 µM	0.992	> 10.2 µM	0.798	2.16 µM
NCI-H510A (small cell lung carcinoma, semi-adherent)	0.805	2.27 µM	–	–	0.936	> 16 µM	0.896	> 32 µM	0.31	0.0989 µM	0.989	> 1.02 µM	0.979	> 10.2 µM	0.792	2.1 µM
HDQ-P1 (breast, adherent)	0.763	2.13 µM	0.939	> 5 µM	0.759	6.59 µM	0.745	11.7 µM	0.578	0.545 µM	0.985	> 1.02 µM	0.976	> 10.2 µM	0.752	2 µM
MDA-MB-330 (breast, adherent)	0.986	> 5 µM	–	–	0.847	14.4 µM	0.977	> 32 µM	0.609	0.665 µM	0.942	> 1.02 µM	0.849	9.38 µM	0.657	0.931 µM
no-11 (glioma, adherent)	0.866	> 5 µM	0.945	> 5 µM	0.785	8.79 µM	0.901	> 32 µM	0.748	2.02 µM	0.982	> 1.02 µM	0.964	> 10.2 µM	0.612	0.705 µM
H2795 (mesothelioma, adherent)	0.611	0.627 µM	–	–	0.881	> 16 µM	0.975	> 32 µM	0.62	0.682 µM	0.987	> 1.02 µM	0.879	> 10.2 µM	0.659	0.88 µM
BPH-1 (prostate, adherent)	0.397	0.158 µM	0.565	0.481 µM	0.752	5.81 µM	0.747	11.2 µM	0.226	0.0462 µM	0.962	> 1.02 µM	0.982	> 10.2 µM	0.535	0.402 µM
Raji (Burkitt lymphoma, suspension)	0.99	> 5 µM	0.963	> 5 µM	0.8	7.18 µM	0.863	24.8 µM	0.401	0.175 µM	0.989	> 1.02 µM	0.943	> 10.2 µM	0.572	–
